Test results published in the supplement of paper PMC10338343.
± gives the standard deviation. The list shows a part of the results, in another mix than the full data.

The sequences below were run on MIWI (PIWIL1) piRISC loaded with piRNA #1 (30 nt) (assay: pre-steady-state target cleavage rate (min^-1); MIWI and MILI are mouse PIWI proteins and EfPiwi is from a freshwater sponge; tags in brackets are library labels; higher = faster piRNA-guided slicing of the target). Conditions: guide: piRNA #1 5'p-UGAGGUAGUAGGUUGUAUAGUAUCCAGAGG; auxiliary factor: 500 nM mouse GTSF1.
Outline: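 With or without 500 nM GTSF1 partner protein, 1 nM active affinity-purified piRISC carrying one synthetic guide was mixed with 0.1 nM transcribed, DNA-blocked target RNA library in HEPES–potassium acetate buffer at 33 °C for 0–8 or 0–960 min. Uncleaved targets were sequenced and normalised to depth and to weakly complementary targets, three trials were pooled, and k3 was capped at 0.0001 min^-1. The pre-steady-state cleavage rate came from a burst-and-steady-state fit.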
With GGACUGCAUACUAUACAACCUAGUACCUCA the “pre-steady-state target cleavage rate” value was 0.49 ± 0.053. In the case of GGAGACGAUACUAUACAACCUGCUACCUCA, the “pre-steady-state target cleavage rate” value is reported as 0.884 ± 0.046. In the case of GGAGACCAUACUUAACAACCUACUACCUCA, the “pre-steady-state target cleavage rate” value is reported as 0.218 ± 0.031. In the case of CCUCUGGAUACUAUACAACGUACUAGCUCA, the “pre-steady-state target cleavage rate” value is reported as 0.572 ± 0.054. For GGAGACCUAUGAAUACAACCUACUAACUCA, the “pre-steady-state target cleavage rate” value was 0.00651 ± 0.0035. For CCUCUGGAUACAUUACAACCUACUACCUCA, the “pre-steady-state target cleavage rate” value was 1.61 ± 0.1. In the case of GGAGACCAAACUAUACAACCUUCUACCUCA, the “pre-steady-state target cleavage rate” value is reported as 0.212 ± 0.027. For GGAGACCUAUCUAUACAACCUAGUAGCUCA, the “pre-steady-state target cleavage rate” value was 0.00684 ± 0.0024. For GGAGACCUAUGUAGACAACCUACUACCUCA, the “pre-steady-state target cleavage rate” value was 0.00428 ± 0.0025. GGAGACGUUACUAUACAACCUACAACCUCA was tested, and the “pre-steady-state target cleavage rate” value was 0.539 ± 0.041. With GGUCUGGAUACAAUACUACCUACUACCUCA the “pre-steady-state target cleavage rate” value was 1.09 ± 0.092. GGAGACCUAACUAUAGAUCCUACUACCUCA was tested, and the “pre-steady-state target cleavage rate” value was 0.165 ± 0.025. In the case of GGAGACCUUACUAUACAACCAACUUCCUCA, the “pre-steady-state target cleavage rate” value is reported as 0.0154 ± 0.0044. GGAGACCUAACUAUACAUCCUACUACCUCA was tested, and the “pre-steady-state target cleavage rate” value was 0.712 ± 0.07. For GCUCUGGAUACUAUACAAGGUACUACCUCA, the “pre-steady-state target cleavage rate” value was 0.488 ± 0.036. With GGAGUGGAUACUAUAGCAACCUACUACCUCA the “pre-steady-state target cleavage rate” value was 0.907 ± 0.13.
